Test results reported in PMC4336329 (PLoS ONE, 2015).
Screen size: about 310,000 compounds; about 2,200 (0.71%) showed an effect of 50% or more. Effects have a minus sign here. The list shows a part of the results.

Target: human ether-à-go-go-related gene (hERG) potassium channel (human, UniProt Q12809)
Experiment: primary screen, population patch clamp on CHO cells stably expressing hERG

Sequence of human ether-à-go-go-related gene (hERG) potassium channel (Q12809 whole entry, looked up): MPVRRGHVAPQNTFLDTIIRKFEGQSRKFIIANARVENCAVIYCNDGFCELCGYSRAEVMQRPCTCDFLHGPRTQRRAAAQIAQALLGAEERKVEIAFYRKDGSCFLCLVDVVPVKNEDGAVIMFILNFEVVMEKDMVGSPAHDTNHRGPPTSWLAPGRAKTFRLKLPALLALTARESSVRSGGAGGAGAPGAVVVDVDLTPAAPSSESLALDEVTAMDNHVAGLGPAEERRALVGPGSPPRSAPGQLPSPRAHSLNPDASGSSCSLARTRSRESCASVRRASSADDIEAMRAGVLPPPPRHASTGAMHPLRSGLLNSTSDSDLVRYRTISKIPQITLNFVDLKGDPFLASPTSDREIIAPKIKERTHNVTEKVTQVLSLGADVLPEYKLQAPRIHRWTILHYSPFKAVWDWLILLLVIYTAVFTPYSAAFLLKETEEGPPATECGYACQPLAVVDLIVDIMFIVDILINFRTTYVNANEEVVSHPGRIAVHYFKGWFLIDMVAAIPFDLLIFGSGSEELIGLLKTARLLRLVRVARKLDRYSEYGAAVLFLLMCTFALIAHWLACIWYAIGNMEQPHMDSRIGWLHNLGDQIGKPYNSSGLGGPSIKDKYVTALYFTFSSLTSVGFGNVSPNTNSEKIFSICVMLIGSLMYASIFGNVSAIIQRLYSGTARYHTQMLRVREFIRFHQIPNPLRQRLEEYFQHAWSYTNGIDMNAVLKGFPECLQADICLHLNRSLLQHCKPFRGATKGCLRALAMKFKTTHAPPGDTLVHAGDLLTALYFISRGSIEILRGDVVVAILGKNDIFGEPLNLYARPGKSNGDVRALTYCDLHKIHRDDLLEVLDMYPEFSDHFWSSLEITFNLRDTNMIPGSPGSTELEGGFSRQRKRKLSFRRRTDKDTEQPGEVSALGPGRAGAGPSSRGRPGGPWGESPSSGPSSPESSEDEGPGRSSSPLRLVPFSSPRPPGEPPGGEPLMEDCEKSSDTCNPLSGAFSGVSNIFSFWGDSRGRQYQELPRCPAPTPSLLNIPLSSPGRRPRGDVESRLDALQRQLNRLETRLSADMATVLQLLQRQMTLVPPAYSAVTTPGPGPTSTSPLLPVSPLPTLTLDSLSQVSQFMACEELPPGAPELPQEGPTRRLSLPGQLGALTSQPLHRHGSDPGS

Row | SMILES | hERG current change (%, negative = inhibition) at 1uM [%]
1 | O=C(c1c(O)c2ccccc2oc1=O)C1CCCCC1 | 13.2
2 | O=C(CCC(=O)OCc1ccc(Cl)cc1)Nc1cccc([N+](=O)[O-])c1 | 3.12
3 | C=C(C)CSc1nnc(-c2ccc(OC)c(OC)c2)n1N | 9.03
4 | COc1ccc(Cl)cc1-c1nc(SCC(=O)NC(C)C)n[nH]1 | 5.97
5 | COc1ccccc1CN(C)C(=O)c1cnc(C)cn1 | 18.2
6 | CC(=O)N1CCN(Cc2nc3cc(NC(=O)Nc4ccccc4)ccc3n2C)CC1 | 15.5
7 | Br.C=CCN1C(c2ccccc2)=CS/C1=C(/C#N)c1nnc(N2CCOCC2)n1-c1ccccc1 | 13
8 | CCCCCCOc1ccc(C(=O)O)cc1C#N | 12.2
9 | Cc1cc(C(=O)OCC(=O)N2CC(C)OC(C)C2)c2ccccc2n1 (centres unmarked) | -15.2
10 | O=C(/C=C1\NC2(CCCC2)Cc2ccccc21)C(=O)N/N=C/c1ccccc1O | 17.3
11 | CCC(C)[C@H](NC(=O)OC(C)(C)C)C(=O)N/N=C/c1ccc2cc(OC)ccc2n1 (some centres unmarked) | 7.31
12 | CC1(C(=O)NC2CCCC2)CCC(=O)N1Cc1cccs1 (centres unmarked) | 4.68
13 | CC(C)CC(=O)NC(=S)Nc1ccc(S(=O)(=O)N2CCCC2)cc1 | 15.8
14 | O=C(CSc1nc(=O)n2ccccc2n1)NCc1ccccc1Cl | 16.3
15 | CC(C)c1nnc(NC(=O)C2CCN(C(=O)c3ccco3)CC2)s1 | 11.8
16 | Cc1cc(C(=O)CSc2cccc[n+]2[O-])c(C)n1-c1ccc(Br)cc1 | 9.28
17 | Cn1cnnc1SCC(=O)NNC(=O)COc1ccc(Br)cc1 | 10.1
18 | C=CCn1c(CNC(=O)c2ccco2)nnc1SCC(=O)c1ccccc1 | 9.27
19 | COc1ccc(C(CN(C)C)C2(O)CCCCC2)cc1.Cl (centres unmarked) | 3.87
20 | Cc1cccc(C2=NNC(=O)C(c3ccc(Cl)cc3)C2)c1 (centres unmarked) | 7.5
21 | c1ccc(C2=Nn3c(nnc3-c3cccs3)SC2)cc1 | 13.7
22 | CN(C(=S)NC(=O)c1ccccc1)c1c(N)n(Cc2ccccc2)c(=O)[nH]c1=O | 4.5

Row | SMILES | hERG current change (%, negative = inhibition) at 1uM [%]
23 | Cc1ccccc1CSc1ncc(C#N)c(N)n1 | 2.17
24 | Cc1ccc(C)c(N2C(=O)CC(Cc3ccc(Cl)cc3)C2=O)c1 (centres unmarked) | 9.48
25 | Cc1nn(CC(=O)NC(C)C)c(C)c1[N+](=O)[O-] | 8.06
26 | CN(C)c1cccc(N=C2C=C(N3CCOCC3)CC(C)(C)C2)c1 | -24.1
27 | CCN(CC(=O)NCc1cccs1)S(=O)(=O)c1ccc(C(C)C)cc1 | -2.78
28 | Cc1cccc(NC(=O)CSc2nc3ccccc3c3nc(CCc4c(C)n[nH]c4C)nn23)c1 | 10.7
29 | Cc1nnc(SCC(=O)N/N=C/c2ccc(-c3ccc(C)c(Cl)c3)o2)s1 | 1.3
30 | Cc1ccc(-n2c(SCC(=O)NCCN3C(=O)CSC3=O)nnc2-c2cccc(C)c2)cc1 | 8.25
31 | Cc1cccc(-n2nc3c(c2NC(=O)CCC2CCCCC2)CS(=O)C3)c1C (centres unmarked) | -5.52
32 | O=C(CSCc1ccc(Cl)cc1Cl)Nc1ccccc1C(=O)Nc1ccc(C(=O)O)cc1 | 11.5
33 | COc1cccc(-c2nc(CS(=O)(=O)CC(=O)NC3CCC(C)CC3)c(C)o2)c1 (centres unmarked) | -2.03
34 | COC(=O)CNC(=O)COC(=O)c1cc(SC)ccc1Cl | 12.3
35 | Cc1ccc2c(c1)N(C(=O)CCC(=O)NC1CCCCCC1)CC(C)O2 (centres unmarked) | 6.39
36 | CCOC(=O)c1nc(S(C)(=O)=O)ncc1Cl | 11.6
37 | Cc1cccc(NC(=O)C2CCN(S(=O)(=O)c3ccc4c(c3)OCCCO4)CC2)n1 | 8.88
38 | O=C(Nc1nc2nc(-c3ccccc3)cc(-c3ccccc3)n2n1)c1ccco1 | -0.705
39 | Br.CCSC1=NCN(CCCC(=O)O)CN1 | 9.63
40 | CCC1Oc2ccc(C)cc2N(CC(=O)NCC2CCCO2)C1=O (centres unmarked) | 9.88
41 | CCCCn1c(N)c(N(C)C(=O)c2ccccc2Oc2ccccc2)c(=O)[nH]c1=O | 17.5
42 | NS(=O)(=O)c1ccc(CCNC(=O)CNC(=O)Cc2cccc3ccccc23)cc1 | 17
43 | CCCCn1c(N)c(N(CCOC)C(=O)COC(=O)CCOc2ccccc2C)c(=O)[nH]c1=O | 16.5
44 | CCCCOc1c(Br)cc(/C=C2\N=C(C)OC2=O)cc1OCC | 8.93
